The results in this text go back to PubChem BioAssay AID1508624 (National Center for Advancing Translational Sciences (NCATS), 2021).

SMILES strings stand for the structures. Screen size: about 48,000 compounds; about 120 (0.25%) were called active. Roughly 4% stayed inconclusive and do not appear here. Calls follow the shape of the dose curve; as a rule, active = well fitted activation curve with a large enough effect; inconclusive = small, poorly fitted or top-dose-only effect, or another doubt; inactive = no such curve, though single readings can be large or run the other way. Some of the results follow.

The nature of the test: Primary qHTS for Identification of Small Molecule Activators of Huntingtin-Antisense Promoter Activity. Also: nearly all actives have a fitted effect of over 55% in size. Conditions: HEK293 HTT-AS promoter firefly luciferase reporter, 24 h; series mostly up to 57.5 µM; activity change, positive = activation: at the top concentration. The method, boiled down: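 HEK293 cells carrying firefly luciferase reporters were seeded at 2,500 per well in Opti-MEM and cultured for 24 h. They were then treated with compounds at up to 57.5 uM final for 24 h at 37 degrees C before Dual-Glo luminescence readout.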
`CCOc1ccc(CCNC(=O)c2cc3cccc4c3n2CCS4)cc1`: the “activity change, positive = activation” value is inactive: -8.39%. Regarding `COc1cccc(NC(=O)C2CCCN(S(=O)(=O)c3cn(C(C)C)cn3)C2)c1` (stereo unspecified), the “activity change, positive = activation” value was inactive: -8.56%. Then `COc1ccc(N2CCN(c3ncnc4c3cnn4C)CC2)cc1`, with inactive: -25.3%; and `NCCNCCNCCNCCN`, with inactive: -3.94% [at 11.5 µM, percent change from vehicle, -100% = no light]. The result for `CCCC(=O)N(c1ccc2oc(C)c(C(C)=O)c2c1)S(=O)(=O)c1ccc(CC)cc1` reads inactive: -54.4%.

`Cc1cccc(C(=O)Nc2ccc(S(=O)(=O)N3CCC(c4nc5ccccc5s4)CC3)cc2)c1`: the “activity change, positive = activation” value was inactive: -25.9%. For the compound `COCCCNC(=O)c1cc2cc(S(=O)(=O)N3CCCCC3)ccc2n1C`, the “activity change, positive = activation” value was inactive: -31.9%. The result for `CC[C@H]1OC(=O)[C@H](C)[C@@H](O[C@H]2C[C@@](C)(OC)[C@@H](O)[C@H](C)O2)[C@H](C)[C@@H](O[C@@H]2O[C@@H](C)C[C@H](N(C)C)[C@@H]2O)[C@](C)(O)C[C@@H](C)C(=O)[C@H](C)[C@@H](O)[C@]1(C)O` reads inactive: -12%; that for `C=Cc1ccc(Cn2c(C(=O)O)c(CNCc3ccc(F)cc3)c3ccc(C)cc32)cc1`, inactive: -69.4%. Consider `Cc1cc(C)c(NC(=O)CSc2ncc3c(n2)-c2cc(Cl)ccc2N(C)S3(=O)=O)c(C)c1`, for which the “activity change, positive = activation” value was inactive: -10.5%. As for `CCC(C)(C)NC(=O)C1CCN(S(=O)(=O)c2ccc3c(c2)CCCN3C(C)=O)CC1`, the “activity change, positive = activation” value was inactive: -19.1%. As to `COc1cc2ccccc2cc1C(=O)Nc1cccc(-c2nc3cc(C)c(C)cc3o2)c1`, the “activity change, positive = activation” value was inactive: -74.4%. Then `COC(=O)c1c(NC(=O)c2ccc(S(=O)(=O)N3CCC(C)CC3)cc2)sc2c1CCN(C)C2`, with inactive: -35.9%; and `CN(C(=O)CSc1nnc(NC(=O)Nc2ccccc2)s1)c1ccccc1`, with inactive: -34.9%. Then `Brc1cccc(-c2nnn3c2nc(NCc2ccc4c(c2)OCO4)c2ccccc23)c1`, with inactive: 18.2%. For `O=C(NCC(c1cccnc1)N1CCc2ccccc21)c1cccc(Br)c1` (stereo unspecified), the “activity change, positive = activation” value was inactive: -27.1%. The result for `CC(C)NC(=O)C1CCC(Cn2c(=O)c3sccc3n(Cc3ccc(F)cc3)c2=O)CC1` (stereo unspecified) reads inactive: -15.5%.

With `COc1ccc(-n2ncc(C(=O)NCc3ccco3)c2C2CCN(C(=O)OC(C)(C)C)CC2)cc1`, the “activity change, positive = activation” value was inactive: -3.82%.

For `Cc1cc(C)cc(NC(=O)N2CCC(C(N)=O)(N3CCCCC3)CC2)c1`, the “activity change, positive = activation” value was inactive: 3.5%. For `COc1ccc(N(C)C(=O)c2nn(-c3ccc(C)cc3)c(=O)n(C)c2=O)c(OC)c1`, the “activity change, positive = activation” value is inactive: -6.97%. Then `CCOC(=O)N1CCC(NC(=O)c2cnn(-c3ccc(F)cc3)c2-n2cccc2)CC1`, with inactive: -10.2%.

As to `CCN(CC)c1cc(C)c2cc(NC(=O)/C=C/c3ccccc3Cl)ccc2n1`, the “activity change, positive = activation” value was inactive: -6.32%. Then `COc1ccc(N2CC(NC(=O)C(=O)c3c[nH]c4ccccc34)CC2=O)cc1` (stereo unspecified), with inactive: -11.6%; and `COc1ccc(CNC(=O)CC(C)n2nc(C)cc2C)cc1` (stereo unspecified), with inactive: -4.19%; and `Cc1ccc(-c2nn(-c3ccc(F)cc3F)c3c2cnc2ccc(F)cc23)cc1`, with inactive: -0.81%. Then `O=C(CSc1ncc2c(n1)-c1cc(Cl)ccc1N(Cc1ccccc1)S2(=O)=O)Nc1ccc(F)cc1F`, with inactive: -25.3%; and `O=C(CCSCc1cccc(Cl)c1)NCc1ccccc1Cl`, with inactive: -8.19%; and `CC(C)Oc1ccc(C(=O)N2CCN(c3nc4c(F)cc(F)cc4s3)CC2)cc1`, with inactive: -0.0419%. On to `O=c1c(N2CCN(c3ccccc3)CC2)csc2ccc(Cl)cc12`, for which the “activity change, positive = activation” value is inactive: -3.33%. Take `CCN1c2ccccc2-n2cccc2C12CCN(C(=O)Nc1ccccc1Br)CC2`: the “activity change, positive = activation” value is inactive: -34.7%. Then `CCCCn1cc(S(=O)(=O)c2ccccc2)c(=O)c2cc(F)c(N3CCN(CCC)CC3)cc21`, with inactive: -8.06%; and `CCOCCn1ccc2c(OCC(=O)NCc3ccc(F)cc3)cccc2c1=O`, with inactive: -14.4%; and `COCCn1c(=O)[nH]c2cc(C(=O)N3CCN(c4ccc(Cl)cc4)CC3)ccc2c1=O`, with inactive: -43.5%. Regarding `Cc1ccc(CN2CCC(CNC(=O)c3cnn(-c4ccccc4)c3C3CCN(C(=O)OC(C)(C)C)CC3)CC2)cc1`, the “activity change, positive = activation” value is inactive: -7.55%. Then `Cc1ccc2nc(NC(=O)c3nc(SCc4ccccc4F)ncc3Cl)sc2c1`, with inactive: 0%; and `Cc1ccc2c(c1)C(=O)C(=O)N2Cc1ccc(OCCC(C)C)cc1`, with inactive: -10.8%.

On to `COc1ccc(NC(=O)c2cc(C(C)=O)n3ccccc23)cc1`, for which the “activity change, positive = activation” value is inactive: 4.4%. As to `COc1ccc(NC(=O)c2oc3ccc(S(=O)(=O)N4CCCCC4)cc3c2C)cc1Cl`, the “activity change, positive = activation” value is inactive: 0%.

As to `COc1cc2c(=O)n(Cc3ccco3)c(=O)n(CC(=O)Nc3ccc(F)cc3)c2cc1OC`, the “activity change, positive = activation” value is inactive: -23.7%.

As for `CCOc1cc2[nH]c(=O)n(Cc3ccc(C(=O)N4CCN(c5ccccc5)CC4)cc3)c(=O)c2cc1OCC`, the “activity change, positive = activation” value was inactive: -21.6%. The result for `CSc1ncc(Cl)c(C(=O)Nc2cc(C(F)(F)F)ccc2Cl)n1` reads inactive: 5.01%; that for `Cc1nc(-c2ccc(Cl)cc2)sc1CCNC(=O)C(=O)Nc1ccc2c(c1)OCCO2`, inactive: -15.7%.

As for `O=C(O)c1ccc(NCc2nc3ccccc3n2CCOc2ccccc2Cl)cc1`, the “activity change, positive = activation” value is inactive: -13.5%.

Turning to `O=C(CSc1nc(=O)n(Cc2cccnc2)c2c1CCC2)Nc1cccc(Cl)c1`, the “activity change, positive = activation” value is inactive: -40.8%. Then `COc1cc(C(=O)N2CCN(CCc3ccncc3)CC2)cc(OC)c1OC`, with inactive: -1.19%; and `COc1cccc(-n2c(=O)c3c(C)c(C(=O)N(C)C)sc3n(Cc3cccc(C)c3)c2=O)c1`, with inactive: -15.9%; and `Cc1ccc(NC(=O)Cn2c(=O)n(CC3CCC(C(=O)NC(C)C)CC3)c(=O)c3sccc32)cc1` (stereo unspecified), with inactive: -22.1%. The result for `COc1ccc(-c2nc(C)c(CCNC(=O)C(=O)Nc3ccccc3F)s2)cc1` reads inactive: 0.482%; that for `COc1ccccc1-n1nc(-c2ccccc2)c2cnc3c(F)cc(F)cc3c21`, inactive: -20.6%. Then `COc1ccc(C(CNC(=O)COc2cc(C)cc(C)c2)N2CCCCC2)cc1` (stereo unspecified), with inactive: 5.37%; and `CCc1cc(S(=O)(=O)O)c2cc(C(C)C)cccc1-2`, with inactive: -8.46%.

For `COc1ccc(CCN2CCC(CNC(=O)c3cnn(-c4ccc(C)cc4)c3C3CCN(C(=O)OC(C)(C)C)CC3)CC2)cc1`, the “activity change, positive = activation” value is inactive: -16%.

In the case of `COc1ccc(C2CC(=O)N(Cc3ccccc3C)c3c2c(C)nn3-c2nc(C)cc(C)n2)c(OC)c1` (stereo unspecified), the “activity change, positive = activation” value is inactive: -23.7%. Then `COc1ccc(-c2nc3c4ccccc4n(CC(=O)Nc4ccc(C(C)C)cc4)c(=O)n3n2)cc1`, with inactive: 9.55%; and `COc1ccc(NC(=O)CSC2=Nc3ccccc3C3=NC(CC(=O)NCc4ccccc4OC)C(=O)N23)cc1Cl` (stereo unspecified), with inactive: -12.8%.

Take `Cc1ccccc1-n1c(SCC(=O)Nc2ccc(Cl)cc2Cl)nc(O)cc1=O`: the “activity change, positive = activation” value is inactive: -23.3%. Then `Cc1cccc(N(C)S(=O)(=O)c2ccc(-c3cc(C)no3)s2)c1`, with inactive: -43.8%; and `OCCOCCN1CCN(C2=Nc3ccccc3Sc3ccccc32)CC1`, with inactive: -5.39%.

In the case of `CCc1sc(Nc2cccc(C)c2)nc1-c1cc2cccc(OC)c2oc1=O`, the “activity change, positive = activation” value is inactive: -2.61%.

For the compound `Cc1ccc(S(=O)(=O)N2CCc3cc(C(=O)N(C)Cc4ccccc4)ccc32)cc1`, the “activity change, positive = activation” value is inactive: -32.4%. Then `CC(=O)N1CCc2c(sc3c2c(=O)n(-c2ccc(F)cc2)c(=O)n3Cc2cc(C)ccc2C)C1`, with inactive: -7.29%.

For `COc1ccc(-c2noc(-c3ccc(N4CCN(C)CC4)c([N+](=O)[O-])c3)n2)cc1`, the “activity change, positive = activation” value was inactive: 23.9%. The result for `COc1ccc(S(=O)(=O)c2c(O)c(C)cc(NS(=O)(=O)c3ccc(Cl)cc3)c2C(C)C)cc1` reads inactive: -33.5%; that for `Cn1cnc(S(=O)(=O)N2CCC(C(=O)Nc3ccc(F)cc3F)CC2)c1`, inactive: -1.41%. Then `Cc1ccc(-c2noc(CNC(=O)COc3cc(C)c(Br)c(C)c3)n2)cc1`, with inactive: 0.0015%; and `CCOCCc1nnc(NC(=O)C(=O)c2cc(C)n(-c3cccc(C)c3)c2C)s1`, with inactive: 0%; and `O=C(NC1CCCCC1)c1ccc2c(c1)N(Cc1cccc(F)c1)C(=O)c1ccccc1S2`, with inactive: -14.3%. As for `O=C(NC1CCCCC1)c1ccc2c(c1)sc1nc(-c3ccc(F)cc3)cn12`, the “activity change, positive = activation” value is inactive: -2.13%.

For `Cc1ccc(-n2nc(C(=O)N3CCN(c4ccc(F)cc4)CC3)c(=O)n(C)c2=O)cc1`, the “activity change, positive = activation” value is inactive: -9.95%. The result for `COc1ccc2nc(NC(=O)c3nc(S(=O)(=O)Cc4ccccc4F)ncc3Cl)sc2c1` reads inactive: -15.4%; that for `Cc1ccc(NC(=O)CSc2nc3ccc(Br)cc3[nH]2)c(C)c1`, inactive: -31.1%; that for `Cc1ccc(N2CC(C(=O)NCCS(=O)(=O)N3CCN(c4ccccc4F)CC3)CC2=O)cc1` (stereo unspecified), inactive: -6.57%. Then `CN(C)CCN(C(=O)c1ccco1)c1nc2c(F)cc(F)cc2s1`, with inactive: 1.82%.

`CC1CCN(C(=O)CSc2c3c(nc4ccc(Cl)cc24)CCCC3)CC1`: the “activity change, positive = activation” value was inactive: -35.6%.

In the case of `CC1=C(c2ccc(C(C)C)cc2)S(=O)(=O)NC1=NCc1ccccc1C`, the “activity change, positive = activation” value was inactive: -19.6%. Then `Cc1nc2c3ccccc3nc(NNC(=O)CCC(=O)N3CCN(c4cccc(Cl)c4)CC3)n2n1`, with inactive: -18.4%; and `Cc1cccc(NC(=O)CSc2nc3ccccc3nc2N2CCC(C)CC2)c1`, with inactive: -23.2%; and `CCOc1ccc(N(Cc2ccccc2)C(=O)c2nc(SCC)ncc2Cl)cc1`, with inactive: -49.4%. The result for `COc1ccc(S(=O)(=O)N(CC(=O)Nc2ccc(F)c(Cl)c2)c2ccc(C)cc2)cc1OC` reads inactive: -24.2%; that for `O=C(COc1ccc(F)cc1)Nc1nnc(S(=O)(=O)N2CCc3ccccc32)s1`, inactive: -51.1%; that for `COc1cccc2c1C(=O)c1c(O)c3c(c(O)c1C2=O)C[C@@](O)(C(=O)CO)C[C@@H]3O[C@H]1C[C@H](N)[C@H](O)[C@H](C)O1`, inactive: -32.9%. Then `Cc1ccc(Nc2cc(C)nc(-n3nc(C)cc3C)n2)cc1`, with inactive: -33.3%; and `O=C(Nc1ccc(OC(F)(F)F)cc1)C1CCN(S(=O)(=O)c2ccc3[nH]c(=O)ccc3c2)CC1`, with inactive: -33.6%.

`COCCNc1ccc(-c2nc(-c3ccncc3)no2)cc1[N+](=O)[O-]`: the “activity change, positive = activation” value was inactive: 17.3%. The result for `Cc1cc(C(=O)NOCCO)c(Nc2ccc(I)cc2F)n(C)c1=O` reads inactive: -24.4%; that for `COc1cc(NC(=O)CSc2nc(-c3cccs3)cc(C(F)(F)F)n2)cc(OC)c1OC`, inactive: -16.7%; that for `COc1cccc(-n2c(SCC(=O)N3CCc4ccccc43)nc3c([nH]c4ccccc43)c2=O)c1`, inactive: -15.6%. In the case of `O=C(Nc1ccc(F)cc1F)c1cccc2c1C(=O)N(C1CCCCC1)C2`, the “activity change, positive = activation” value is inactive: -11.3%.

With `Cc1cccc(CSc2nc3c(c(=O)[nH]2)CCC3)c1`, the “activity change, positive = activation” value is inactive: -24.4%. The result for `CCc1ccc(C2CC(=O)c3c([nH]c(C(=O)OC4CCC(C)CC4)c3C)C2)cc1` (stereo unspecified) reads inactive: -16.3%.

In the case of `COc1ccc(S(=O)(=O)NCc2cccn2Cc2cccc(C)c2)cc1Cl`, the “activity change, positive = activation” value is inactive: -50.6%.
